Assay results taken from US10322110B2, “Imidazole-based antimicrobial agents” (priority 2014, dated 2019).

What was measured:
Format in all cases: cell-based
[1] = test system: Escherichia coli TolC mutant strain ΔtoIC (K12 b3035 TolC; JW5503); conditions: MIC activity class
[2] = test system: Human hepatocytes (HepaRG cells); assay: human cytotoxicity assay in vitro (CellTiter-Glo), hepatocytes; conditions: cytotoxicity class
[3] = test system: Streptococcus pneumoniae (Chester, ATCC49619); assay: broth microdilution MIC assay, Streptococcus pneumoniae; conditions: MIC100 class score, 24 h

Structure (SMILES) | Antibacterial activity EC Δ (Escherichia coli ΔtoIC) [1] | cytotoxicity cell line H (hepatocytes) [2] | Antibacterial activity Streptococcus pneumoniae [3]
Cc1[nH]c(-c2ccc(-c3ccccc3F)s2)nc1-c1ccccc1 [Compound 15] | 1 (MIC100 of 20-50 μg/ml or an MIC50 of <10 μg/ml) | 1 (compounds not causing a loss of viability at concentrations between 25 and 50 μM) | 
Cc1[nH]c(-c2ccc(-c3ccccc3C(F)(F)F)o2)nc1-c1ccccc1 [Compound 17] | 1 (MIC100 of 20-50 μg/ml or an MIC50 of <10 μg/ml) |  | 
Cc1[nH]c(-c2ccc(-c3ccccc3OC(F)(F)F)o2)nc1-c1ccccc1 [Compound 18] | 1 (MIC100 of 20-50 μg/ml or an MIC50 of <10 μg/ml) |  | 
Cc1[nH]c(-c2ccc(-c3cccc(F)c3C)o2)nc1-c1ccccc1 [Compound 60] | 1 (MIC100 of 20-50 μg/ml or an MIC50 of <10 μg/ml) |  | 
Cc1ccccc1-c1cnc(-c2ccc(-c3ccccc3C(F)(F)F)o2)[nH]1 [Compound 69] | 1 (MIC100 of 20-50 μg/ml or an MIC50 of <10 μg/ml) |  | 4 (MIC of 1 μg/ml or less for preventing streptococcal growth 100% (MIC100))
